# In PubChem BioAssay (NCATS):
# The shares of active, inactive and inconclusive entries below differ from those in the screen. Potencies of inconclusive entries are left out as doubtful fits. The source made the active and inactive calls. Calls follow the shape of the dose curve; as a rule, active = well fitted cell-killing curve with a large enough effect; inconclusive = small, poorly fitted or top-dose-only effect, or effect the other way; inactive = no such curve, though single readings can be large or run the other way.
# Test: Viability qHTS for spleen associated tyrosine kinase inhibitor (SYKi) drug resistant MV4-11 cells (AID 1963824); also: nearly all actives have a fitted effect of over 35% in size
# Conditions: SYKi-resistant MV4-11 viability, CellTiter-Glo, 72 h; series mostly up to 45 µM
# Method in brief: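 CellTiter-Glo luminescence, read 10 min after reagent addition, reports viability after a 72 hr compound exposure. Cells are an MV4-11 line made resistant to SYK inhibition, seeded at 500 per well onto compound-containing plates.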
# Potency is read from the fitted curve at half-maximal effect; tags tell the direction and shape of the fitted curve.
SMILES,Potency,"viability, % of control"
CCCCC(=O)N(Cc1ccc(-c2ccccc2-c2nn[nH]n2)cc1)C(C(=O)O)C(C)C (stereo not drawn),inactive,–
CC1CCC2C(C(=O)O)=CC3C(O)C(C)(C)CC123 (stereo not drawn),inactive,–
CC1(C)S[C@@H]2[C@H](N=CN3CCCCCC3)C(=O)N2[C@H]1C(=O)O,inactive,–
C=C1CC[C@@H](O)[C@]2(C)C[C@H]3OC(=O)C(=C)[C@H]3CC12 (stereo partly drawn),active: 6.51 µM,–
C=C1C(OC(C)=O)CCC2(C)CCC(C(C)(C)O)CC12 (stereo not drawn),"inconclusive [cytotoxic, single point]",–
C=C(C)[C@@H]1CCC2=CC(=O)C[C@@H](C)[C@]2(C)C1,"inconclusive [cytotoxic, partial curve, poor fit]",–
C[C@]1(OC(=O)/C=C\c2ccc(O)cc2)C[C@@H](O)[C@]2(O)C=CO[C@@H](O[C@@H]3O[C@H](CO)[C@@H](O)[C@H](O)[C@H]3O)C12 (stereo partly drawn),inactive,–
COc1ccc(OC2OC(CO[C@@H]3O[C@@H](C)[C@H](O)[C@@H](O)[C@H]3O)C(O)C(O)C2O)cc1OC (stereo partly drawn),inactive,–
CC(C(=O)O)C1CCC2(C)C3C(=O)C=C4C(CCC(=O)C4(C)C)C3(C)CCC12C (stereo not drawn),inactive,–
N#C/C(=C\c1ccc(O)c(O)c1)C(=O)NCCCc1ccccc1,active: 8.2 µM,–
Cc1c[nH]c2nccc(Oc3c(F)cc(Nc4cc(Cl)nc(N)n4)cc3F)c12,active: 0.731 µM,–
CN([C@H]1c2cc(OCCCC(F)(F)F)ccc2OC(C)(C)[C@@H]1O)S(C)(=O)=O,"inconclusive [cytotoxic, single point]",–
C[C@@H]1O[C@@H](O[C@@H]2[C@@H](O)[C@@H](O[C@]3(CO)O[C@H](CO)[C@@H](O)[C@@H]3OC(=O)/C=C/c3ccc(O)cc3)O[C@H](CO)[C@H]2OC(=O)/C=C/c2ccc(O)cc2)[C@H](O)[C@H](O)[C@H]1O[C@@H]1O[C@@H](C)[C@H](O[C@@H]2OC[C@](O)(CO)[C@H]2O)[C@@H](O)[C@H]1O,–,inactive: 102% [at 9.25 µM]
CC(C)[C@@H]1C(=O)N(S(C)(=O)=O)[C@@H]2CCN(C(=O)/C=C/CN3CCCCC3)[C@H]21,"inconclusive [rising, partial curve, poor fit]",–
CNC(=O)Cn1cc(-c2ccc3c(c2)C(F)CC32NC(=O)N(CC(=O)N(Cc3ccc(F)cc3)[C@@H](C)C(F)(F)F)C2=O)cn1 (stereo partly drawn),"inconclusive [cytotoxic, partial curve, poor fit]",–
CC1CCC2C(=CCC(O)C2(C)C)C1(C)Cc1c(O)cc(CO)c(C=O)c1O (stereo not drawn),active: 7.18 µM,–
CC1=CC(=O)C(C(C)C)=C/C1=N/OC(=O)c1ccccc1C,active: 4.61 µM,–
CC(C)C[C@H](NC(=O)CNC(=O)OCc1ccccc1)C(=O)N[C@@H](Cc1ccccc1)C(=O)CCl,active: 8.2 µM,–
COC(=O)N(C)c1c(N)nc(-c2nn(Cc3ccccc3F)c3ncccc23)nc1N,"inconclusive [cytotoxic, partial curve, poor fit]",–
COC(=O)C[C@@H]1C(C(=O)O)=CO[C@@H](O[C@@H]2O[C@H](CO)[C@@H](O)[C@H](O)[C@H]2O)/C1=C\COC(=O)/C=C/c1ccc(O)c(OC)c1,inactive,–
C[C@]12CCC[C@](C)(C(=O)O)C1[C@@H](O)[C@@H](O)C13CC(CCC12)C(CO)(O[C@@H]1O[C@H](CO)[C@@H](O)[C@H](O)[C@H]1O)C3 (stereo partly drawn),"inconclusive [cytotoxic, partial curve, poor fit]",–

SMILES,Potency,"viability, % of control"
CC1=COC(OC2OC(CO)C(O)C(O)C2O)C2C(CO)CC(OC(=O)/C=C/c3ccc(O)cc3)C12 (stereo not drawn),inactive,–
C[C@]1(O)CC[C@@H]2C(C(=O)O)=CO[C@@H](O[C@@H]3O[C@H](CO)[C@@H](O)[C@H](O)[C@H]3O)[C@@H]21,inactive,–
CCCCCCCCOc1ccc(C(=O)c2ccccc2)c(O)c1,"inconclusive [cytotoxic, single point]",–
O=C(CCO[C@@H]1O[C@H](CO)[C@@H](O)[C@H](O)[C@H]1O)c1ccc(O)cc1,inactive,–
CCOc1cccc2c1OC(c1ccc(F)cc1)C([N+](=O)[O-])=C2 (stereo not drawn),"inconclusive [cytotoxic, full curve, poor fit]",–
COC(=O)C1=COC(OC2OC(CO)C(O)C(O)C2O)C2C(COC(=O)/C=C/c3ccc(O)c(O)c3)C(O)C(O)C12 (stereo not drawn),inactive,–
Nc1ccc(C(=O)OCC(O)CO)cc1 (stereo not drawn),inactive,–
CCCCc1nc(Cl)c(CO)n1Cc1ccc(-c2ccccc2-c2nnn[nH]2)cc1,inactive,–
CN(C)CCCCCCNC(=O)c1cccc(-c2cc(O)c3ncccc3c2)c1,active: 3.26 µM,–
Fc1ccc(-c2nc(C3CCNCC3)sc2-c2ccnc(NC3CC3)n2)cc1,active: 11.6 µM,–
CC(=O)O[C@H]1C[C@@](O)(C(C)C)C2[C@@H](OC(=O)c3ccc(O)cc3)C[C@@]3(C)O[C@H]3C[C@]21C (stereo partly drawn),"inconclusive [cytotoxic, full curve, poor fit]",–
CC1OC(OC2CCC3(C)C(CCC4(C)C3CC=C3C5CC(C)(C)CCC5(C(=O)OC5OC(CO)C(O)C(O)C5O)CCC34C(=O)O)C2(C)C)C(O)C(O)C1O (stereo not drawn),inactive,–
C=C1C(O)C(O)C2(CC3C(C)=CCC4C(C)(C(=O)O)CCCC34C)OC2C1O (stereo not drawn),inactive,–
O=C1N=C(O)S/C1=C\c1ccc2nccnc2c1,active: 13 µM,–
C=C1CC2[C@]3(C)C(=C(O)C(=O)[C@@]2(C)[C@]2(C(=O)OC)C(=O)C(C)OC(=O)[C@@]12C)C(C)(C)C(=O)CC3O (stereo partly drawn),"inconclusive [cytotoxic, single point]",–
C=CC1(C)C=C2CC[C@H]3[C@@](C)(C(=O)O)CCC[C@]3(C)C2CC1 (stereo partly drawn),"inconclusive [cytotoxic, partial curve]",–
COc1ccc(C2=CC(=O)OC2Cc2ccc(O)cc2)c(O)c1 (stereo not drawn),"inconclusive [cytotoxic, single point]",–
COc1cccc(-c2cn(-c3ccc(CCN4CCC(O)CC4)cc3)c3ncnc(N)c23)c1,active: 2.31 µM,–
CC1CCC2C(C(=O)O)=COC(O[C@@H]3O[C@H](CO)[C@@H](O)[C@H](O)[C@H]3O)C12 (stereo partly drawn),active: 16.1 µM,–
C=C1C(=O)O[C@@H]2/C=C(\CO)CC/C=C(/C=O)C[C@H](O)[C@@H]12,active: 3.26 µM,–
C/C=C(/C)C(=O)OC1C(OC(C)=O)C23C(O)OC4(CCC5C6(C)CCC(OC7OC(C(=O)O)C(O)C(OC8OC(CO)C(O)C(O)C8OC8OC(C)C(O)C(O)C8OC8OCC(O)C(O)C8O)C7OC7OC(CO)C(O)C(O)C7O)C(C)(C)C6CCC5(C)C4(C)CC2OC(C)=O)C3CC1(C)C (stereo not drawn),"inconclusive [rising, full curve, poor fit]",–

SMILES,Potency,"viability, % of control"
O=C(N[C@H]1CCN(C(=O)c2cc(C(F)(F)F)cc(C(F)(F)F)c2)[C@H](Cc2ccc(Cl)cc2)C1)c1ccnc2ccccc12,"inconclusive [cytotoxic, single point]",–
COC(=O)c1cc(Br)cnc1N1CCC(NC2CCCCC2)C(O)C1 (stereo not drawn),inactive,–
C=C1C[C@]23C[C@H]1CC[C@H]2[C@@]12C=C[C@H](O)[C@@](C)(C(=O)O1)[C@H]2[C@@H]3C(=O)O,inactive,–
CC1(C)CC2C3=CCC4C5(C)CCC(OC6OC(CO)C(O)C(OC7OC(CO)C(O)C(OC8OC(CO)C(O)C(OC9OC(COC%10OC(CO)C(O)C(O)C%10O)C(O)C(O)C9O)C8O)C7O)C6O)C(C)(C)C5CCC4(C)C3(C)CCC2(C(=O)O)CC1O (stereo not drawn),–,inactive: 99.5% [at 9.25 µM]
Nc1ncnc2c1ncn2[C@H]1CCCO1,inactive,–
C/C=C/C1OC2=C(C(=O)OC2(C)O)C(O)C1O (stereo not drawn),inactive,–
CC(C)c1ccc(CO)cc1O[C@@H]1O[C@H](CO)[C@@H](O)[C@H](O)[C@H]1O,inactive,–
Cc1cc(=O)oc2cc(NC(=O)[C@H](CCC(=O)O)NC(=O)[C@H](CC(C)C)NC(=O)[C@H](CC(C)C)NC(=O)OCc3ccccc3)ccc12,inactive,–
C=C/C=C/[C@@H]1OC[C@H](/C=C/C=C/C)[C@H]1O,"inconclusive [cytotoxic, single point]",–
COc1cc(CO)cc(OC)c1O[C@@H]1O[C@H](CO)[C@@H](O)[C@H](O)[C@H]1O,inactive,–
CC1(C)CCC(C)(C)c2cc(C#Cc3ccc(C(=O)O)cc3)ccc21,"inconclusive [cytotoxic, partial curve]",–
CC(C)(O)c1ccc2c(c1)C(=O)CC1[C@](C)(CO)CCC[C@]21C (stereo partly drawn),inactive,–
CC(C)CCCC(C)NCCC(C)C (stereo not drawn),inactive,–
CC(=O)NC(Cc1ccccc1)C(=O)NC(C(=O)O)C(C)C (stereo not drawn),inactive,–
c1ccc2sc(SSc3nc4ccccc4s3)nc2c1,inactive,–
[O-][n+]1cccc(CO)c1,inactive,–
COc1cc(/C=C/C(=O)OC[C@H]2O[C@@H](OC3CC(C)=C(C(=O)O)C(C)(C)C3)[C@H](O)[C@@H](O)[C@@H]2O)cc(OC)c1O (stereo partly drawn),inactive,–
O=C(Oc1ccccc1)c1ccccc1O,inactive,–
CC(C)C[C@H](CC(=O)NO)C(=O)N[C@@H](Cc1ccc2ccccc2c1)C(=O)N[C@@H](C)C(=O)NCCN,"inconclusive [cytotoxic, partial curve, poor fit]",–
C=C[C@@]1(C)CCC2C(=CCC3[C@]2(C)CCC[C@@]3(C)C(=O)O)C1 (stereo partly drawn),"inconclusive [cytotoxic, single point]",–
c1ccc(Cn2c(-c3ccc(OCC(C4CCNCC4)n4c(-c5ccccc5)nc5ccccc54)cc3)nc3ccccc32)cc1 (stereo not drawn),active: 7.42 µM,–
